The values that follow come from PubChem BioAssay AID1240 (Sanford-Burnham Center for Chemical Genomics, 2008).

Molecules are shown by their SMILES. Among all 50,000 compounds or so, about 800 (1.6%) showed an effect of 50% or more. The list shows a part of the results.

For the test, the target named is Bcl-2-like protein 10 (Homo sapiens) (UniProt Q9HD36). Put plainly: TR3 peptide-Bcl-B binding displacers, biochemical primary FP assay, phenotype converters (AID 1240).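 Note: 0% = Bcl-B with tracer peptide and DMSO and 100% = tracer peptide lacking Bcl-B.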 The settings on record: GST-Bcl-B / FITC-TR3 peptide fluorescence polarization; stronger effect = higher value; compound at 3.75 mg/L. Background: In fluorescence polarisation assays a small probe gives low polarisation when free and higher when bound to something large.
Sequence of UniProt Q9HD36 (Q9HD36 whole entry, looked up): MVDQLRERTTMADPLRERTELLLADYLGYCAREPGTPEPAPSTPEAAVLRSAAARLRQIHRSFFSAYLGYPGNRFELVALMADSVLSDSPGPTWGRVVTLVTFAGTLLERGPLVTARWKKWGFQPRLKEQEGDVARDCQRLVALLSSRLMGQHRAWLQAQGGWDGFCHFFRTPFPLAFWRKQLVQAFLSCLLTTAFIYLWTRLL
On to `CC(=O)Oc1ccc(Br)cc1/C=C1\SC(=S)NC1=O`, for which the displacement was -1.3%.

On to `O=C(NCc1ccco1)C1CC(=O)N(c2ccc(Br)cc2)C1` (stereo not drawn), for which the displacement was -1%.

With `COc1ccccc1CC(=O)NC1CCCCCC1`, the displacement is 11.9%.

As to `CCCCCCc1nnc(NC(=O)C(C)(C)C)s1`, the displacement was -7.9%.

In the case of `O=C(Nc1ccc(-c2nc3ccccc3o2)c(O)c1)c1ccc(-c2cccc(Cl)c2)o1`, the displacement was determined as 38%.

With `COC(=O)CN(C(C)=O)C(c1ccccc1)c1cc(Br)ccc1NC(=O)c1ccccc1Cl` (stereo not drawn), the displacement was found to be 16.4%.

Regarding `COCCNC(=O)/C(=C/c1ccc(-c2cc(Cl)ccc2Cl)o1)NC(=O)c1ccc(C)cc1`, the displacement is -83%.

Consider `Cc1c(NC2=C(Cl)C(=O)c3c(Cl)c(Cl)c(Cl)c(Cl)c32)c(=O)n(-c2ccccc2)n1C`, for which the displacement was 25.8%.

Consider `Cn1ccnc1SCC(=O)Nc1ncc([N+](=O)[O-])s1`, for which the displacement is 7.9%.

For the compound `CC(CNC(c1ccccc1)c1ccccc1)(NS(=O)(=O)c1ccccc1)c1ccccc1` (stereo not drawn), the displacement is -1.3%.

Take `O=C(Nc1cccc(I)c1)c1cc2ccccc2oc1=O`: the displacement is 10.2%.

Turning to `N#CC(C#N)=NNc1cccc2c(S(=O)(=O)O)cccc12`, the displacement came out at 8.2%.

Regarding `Cc1ccc(OCC2CNC(=O)O2)cc1` (stereo not drawn), the displacement is 11.6%.

On to `CC1(C)Cc2nc(N)c(C#N)cc2CO1`, for which the displacement is -10.3%.

`C/C(=N\NS(=O)(=O)c1ccccc1)c1ccc(I)cc1`: the displacement was found to be 0.8%.

As for `O=C(NC(=S)Nc1cc([N+](=O)[O-])cc(Cl)c1O)c1ccccc1`, the displacement was 11.6%.

In the case of `NS(=O)(=O)c1ccc(NC(=O)c2ccc(S(=O)(=O)N3CCOCC3)cc2)cc1`, the displacement is -6%.

Consider `CC(C)C(C(=O)O)N1C(=O)/C(=C/c2ccccc2Cl)SC1=S` (stereo not drawn), for which the displacement turned out to be 13.8%.

As to `C/C(=N\NC(=O)c1ccc(Cl)cc1O)c1ccc(Cl)cc1`, the displacement was 36%.

On to `N/N=C1\CCCc2c1[nH]c1ccc(C3CCCCC3)cc21`, for which the displacement was 13.5%.

In the case of `CCO/N=C1/CC(c2ccccc2)Cc2onc(C)c21` (stereo not drawn), the displacement was found to be 3.7%.

Take `Cc1ccc(S(=O)(=O)NC(C)(C)CN2CCN(CC(C)(C)NS(=O)(=O)c3ccc(C)cc3)CC2)cc1`: the displacement was 12.7%.

Regarding `O=C(Nc1cccnc1)N1CCOCC1`, the displacement is 14%.

Take `CSc1ccc(/C=N\NC(=O)c2cnccn2)cc1`: the displacement was 109%.

With `Cc1ccc(OCC(O)CNC(C)C)cc1C` (stereo not drawn), the displacement is -6%.

As to `CCOc1cc(/C=N/N=C2\NC(=O)C(CC(=O)O)S2)ccc1O` (stereo not drawn), the displacement is -32.4%.

As for `Brc1ccc2[nH]c3c(c2c1)CCCC3=NCc1ccccc1`, the displacement was -7.9%.

On to `Cc1ccc(C(=O)N/C(=C/c2ccc(Br)cc2)C(=O)NCC(=O)O)cc1`, for which the displacement is -4.9%.

Turning to `COc1ccc2nc(NC(=O)COc3ccc(Cl)cc3)sc2c1`, the displacement is 14.5%.

`Cc1ccc(OCc2nc(-c3ccc(Cl)cc3Cl)no2)c(C)c1`: the displacement is -5.8%.

Regarding `O=C(Nc1ccc(Cl)cc1)c1cc2ccccc2cc1O`, the displacement turned out to be 7%.

Consider `COc1ccc(OC)c(NC(=O)c2ccc(N(C)S(=O)(=O)c3ccccc3)cc2)c1`, for which the displacement worked out at 13.1%.

With `CC(=O)c1ccc(NC(=O)Cc2ccc(Cl)cc2)cc1`, the displacement came out at 0.8%.

Consider `O=C(Nc1cccc(Cl)c1)N(c1ccc(Cl)cc1)C1CCS(=O)(=O)C1` (stereo not drawn), for which the displacement is -1.2%.

`C#CCSc1nc2sc3c(c2c(=O)n1CC=C)CCCC3`: the displacement is 16.8%.

As to `CCOC(=O)c1cocc1C(=O)Nc1ccccc1C(=O)O`, the displacement amounted to 9.8%.

Take `O=C1/C(=C/c2ccc(Br)o2)SC(=S)N1c1ccccc1`: the displacement was 33.2%.

In the case of `CCC(=O)Nc1ccc(NC(=O)c2cccc(Cl)c2Cl)cc1`, the displacement amounted to 11.4%.

Turning to `CCN(O)C(C)(C)/C(=N/O)c1ccccc1`, the displacement came out at 12.4%.

Turning to `COc1ccc(C(=O)N2CCN(C(=O)c3ccccc3OC)CC2)cc1OC`, the displacement was -10.4%.

On to `Cc1cc(Cl)ccc1OCC(=O)NCCO`, for which the displacement turned out to be 11.2%.

Turning to `O=C1/C(=C/c2ccc(F)cc2)SC(=S)N1c1ccc(Cl)cc1`, the displacement was 16.4%.

With `O=C1NCC(c2ccccc2)C1C(=O)N/N=C\c1cc(O)c(Br)cc1Br` (stereo not drawn), the displacement was -9.4%.

As for `C=CCNC(=O)C(=O)N/N=C/c1cccc(Br)c1`, the displacement came to 5.8%.

Turning to `Cc1ccc(NC(=O)C2CC(=O)N(c3ccc(Br)cc3)C2)c(C)c1` (stereo not drawn), the displacement was -7.4%.

`Cc1nc(C)c(C(=O)/C=C(\O)C(=O)O)o1`: the displacement is -21.7%.

Take `CCC(=O)NNC(=O)c1cc(=O)[nH]c2ccccc12`: the displacement was 0.5%.

As to `CC1=C(C(=O)Nc2ccc(C)c(Cl)c2)C(c2cccs2)NC(=O)N1` (stereo not drawn), the displacement turned out to be 3.8%.

In the case of `Cc1ccc2c(c1)C(c1ccc(Cl)cc1Cl)CC(=O)N2` (stereo not drawn), the displacement was 4.3%.

Consider `O=c1oc2cc(OCc3c(F)cccc3Cl)ccc2c2ccccc12`, for which the displacement came to 10.5%.

As to `O=C(Nc1nc(-c2ccc(F)cc2)cs1)c1cccs1`, the displacement is -0.9%.

As for `CC(/C=C1\SC(=O)N(c2ccc(O)cc2)C1=O)=C\c1ccccc1`, the displacement was determined as 7.8%.

On to `Cc1ccc(OCc2nnc(NC(=O)Nc3ccc(Cl)cc3)s2)c(C)c1`, for which the displacement was found to be 12.4%.

For the compound `CC(C)Oc1ccccc1NC(=O)c1ccccc1SCc1ccc(F)cc1`, the displacement is -13.8%.

`Cc1ccc(-c2cc(C(=O)N/N=C/c3cccc([N+](=O)[O-])c3)[nH]n2)cc1`: the displacement was -3.3%.

For the compound `NC(=O)c1ccc(NC(=O)c2cccc(Cl)c2)cc1`, the displacement amounted to 0.1%.

`COC(=O)c1ccccc1-c1ccc(/C=C2/C(=O)N(c3ccccc3)N=C2C)o1`: the displacement was determined as 3%.

Turning to `N#C/C(=C/c1ccc(OCC(=O)O)cc1)C(=O)Nc1cccc(Br)c1`, the displacement was -8.9%.

In the case of `Cc1ccc(N2CC(C(=O)OCC(=O)c3ccc(Br)cc3)CC2=O)c(C)c1` (stereo not drawn), the displacement was 12.7%.

As for `Cc1ccc(/C=C(\C#N)c2nc(-c3cccc(Br)c3)cs2)o1`, the displacement came to 164%.

For the compound `Cc1cccc(NC(=O)c2c(NC(=O)Cc3ccccc3)sc3c2CCC3)c1`, the displacement turned out to be 3.6%.

For the compound `CCOC(=O)c1ccc2[nH]c3c(c2c1)CCCC3O` (stereo not drawn), the displacement was -2.8%.

In the case of `COc1ccc(N2C(=O)CC(SC(=NCc3ccc(Cl)cc3)Nc3ccccc3)C2=O)cc1` (stereo not drawn), the displacement was 7.2%.

As to `CCOc1ccc(S(=O)(=O)Nc2cccnc2)c2ccccc12`, the displacement came to 12.3%.

For the compound `O=C(COC(=O)CN1C(=O)c2ccccc2C1=O)Nc1cccc2ccccc12`, the displacement is -8.1%.

With `Cc1ccc(/C=N/N=C2\NC(=O)C(C)S2)cc1` (stereo not drawn), the displacement came out at 4.7%.

Turning to `S=C(c1ccccc1)N1CCN(c2cccc(Cl)c2)CC1`, the displacement came out at 10.5%.

Take `CCN(CC)S(=O)(=O)c1ccc(N)cc1`: the displacement was -2.3%.

Take `COc1ccc(CN2CCN(S(=O)(=O)c3ccc(C)cc3)CC2)cc1Br`: the displacement was found to be 12.8%.

Take `COc1cc(OC)c(NC(=O)COc2ccc(F)cc2)cc1Cl`: the displacement was found to be 4.7%.

For `O=C(Nc1ccc(Cl)c(Cl)c1)C1C2CCC3C(CCC21)C3(Cl)Cl` (stereo not drawn), the displacement stood at 10.2%.

Regarding `CS(=O)(=O)N1CCN(C2CCN(Cc3ccccc3)CC2)CC1`, the displacement was -10.2%.

On to `CCCSc1nnc(NC(=O)Nc2ccc(Cl)cc2)s1`, for which the displacement came out at 8.2%.
